The antibiotic and cytotoxicity screens of Wong et al. (2023)
The list shows a part of the results.

Legend:
[1] = tested on: HSkMC (human skeletal muscle cells); assay: cytotoxicity call (relative viability < 0.9); settings: 10 µM
[2] = tested on: HepG2; assay: cytotoxicity call (relative viability < 0.9); settings: 10 µM
[3] = tested on: S. aureus RN4220; assay: growth inhibition call (relative growth <= 0.2); settings: 50 µM

| SMILES | cytotoxicity call [1] | cytotoxicity call [2] | growth inhibition call [3] |
| --- | --- | --- | --- |
| C[C@H]1CN([C@@H](C)CO)C(=O)c2cccc(NC(=O)Nc3ccc(F)cc3)c2O[C@@H]1CN(C)Cc1ccc(C(F)(F)F)cc1 | active | inactive | inactive |
| Cn1cc(N2C[C@]3(CNCCOC3)OCC2=O)cn1 | inactive | inactive | inactive |
| Cc1noc(C)c1S(=O)(=O)N(C)C[C@H]1Oc2c(NC(=O)NC3CCCCC3)cccc2C(=O)N([C@H](C)CO)C[C@@H]1C | inactive | inactive | inactive |
| CN1CCN([C@@H](CNC(=O)C(=O)NCc2ccco2)c2ccc3c(c2)OCO3)CC1 | inactive | inactive | inactive |
| COCCNC(=O)C[C@H]1CC[C@@H]2[C@H](COC[C@@H](O)CN2C(=O)Nc2ccc3c(c2)OCO3)O1 | inactive | inactive | inactive |
| C[C@@H]1CCCCO[C@@H](CN(C)Cc2ccc(Cl)c(Cl)c2)[C@H](C)CN([C@H](C)CO)C(=O)c2cc(NC(=O)Nc3ccc4c(c3)OCO4)ccc2O1 | inactive | inactive | inactive |
| COCC#Cc1cnc2c(c1)C(=O)N([C@@H](C)CO)C[C@@H](C)[C@@H](CN(C)C(=O)Nc1cc(F)ccc1F)O2 | inactive | inactive | inactive |
| CN1CCN(C(=O)C[C@H]2CC[C@H]3[C@@H](COC[C@H](O)CN3Cc3ccc4c(c3)OCO4)O2)CC1 | inactive | inactive | inactive |
| C[C@@H]1CN([C@H](C)CO)C(=O)c2cccc(NS(=O)(=O)c3ccccc3)c2O[C@H]1CN(C)Cc1ccncc1 | inactive | inactive | inactive |
| COc1ccc2c3c(n(c2c1)C)[C@H](CO)N(Cc1cc(cc(c1)OC)OC)C[C@]13CCN(CC1)S(=O)(=O)c1cn(cn1)C | inactive | inactive | inactive |
| CCCCN1CNC(=S)NC1 | inactive | active | inactive |
| O=C(Nc1cccc2cccnc12)[C@@H]1[C@H](c2ccc(I)cc2)CC(=O)N1C(=O)OCc1ccccc1 | inactive | inactive | inactive |
| C[C@H](C(=O)N(C)C[C@H]1OCc2ccccc2-c2c(n(C)c3ccccc23)C(=O)N([C@H](C)CO)C[C@@H]1C)c1ccccc1 | inactive | inactive | inactive |
| C[C@H](CO)N1C[C@H](C)[C@@H](CN(C)Cc2ccc(C(F)(F)F)cc2)OCCCC[C@H](C)Oc2ccc(NC(=O)Nc3ccc(F)cc3)cc2C1=O | inactive | inactive | inactive |
| C[C@H](CO)N1C[C@H](C)[C@H](CN(C)C(=O)Nc2ccc(C(F)(F)F)cc2)OCCCC[C@H](C)Oc2ccc(NC(=O)Nc3ccc4c(c3)OCO4)cc2C1=O | inactive | inactive | inactive |
| C=CCN1C[C@@]23C=C[C@@H](O2)[C@@H](C(=O)O)C3C1=O (stereo partly drawn) | inactive | inactive | inactive |
| Cc1noc(C)c1NC(=O)Nc1ccc2c(c1)C(=O)N([C@H](C)CO)C[C@H](C)[C@@H](CN(C)C(=O)Nc1cccc3ccccc13)OCCCC[C@@H](C)O2 | inactive | inactive | inactive |
| c1coc(CNC[C@H]2Cn3nncc3CO2)c1 | inactive | inactive | inactive |
| C=CCNC(=O)[C@@H]1[C@H]2C(=O)O[C@H](c3ccccc3)[C@H](c3ccccc3)N2[C@H](c2ccccc2OCCO)[C@@]12C(=O)Nc1ccc(C#Cc3ccc(OC)cc3)cc12 | inactive | inactive | inactive |
| Cc1noc(C)c1NC(=O)Nc1cccc2c1O[C@H](CN(C)Cc1ccc(Cl)c(Cl)c1)[C@@H](C)CN([C@H](C)CO)C2=O | inactive | inactive | inactive |
| C[C@@H]1CN([C@@H](C)CO)C(=O)c2cc(NC(=O)c3ccncc3)ccc2O[C@@H](C)CCCCO[C@H]1CN(C)C(=O)Nc1ccc(C(F)(F)F)cc1 | inactive | inactive | inactive |
